Reference: PubChem BioAssay AID463173 (ICCB-Longwood Screening Facility, Harvard Medical School, 2010)
Out of some 52,000 compounds screened, about 4,300 (8.3%) were called active. Cut-off read from the data, not from the text of the source: active = survival mostly below about 52% (no sharp cut-off); inactive = mostly above about 56%. The list shows a part of the results.

Each compound was assayed on DeltatarO mutant (assay: growth inhibition of S. aureus wild type versus tarO mutant, primary screen, teichoic acid synthesis inhibitors, RN4220, OD600 (AID 463173)). Conditions: OD600, 18 h, stronger effect = lower value, screened at 18.75 µg/mL (by protocol).

Structure (SMILES) | survival
CCc1ccccc1NC(=O)CSC1=Nc2ccccc2C2=NC(Cc3ccccc3)C(=O)N12 (stereo unspecified) | inactive: 78%
O=C(CSc1nc2c([nH]c3ccccc32)c(=O)n1-c1ccc(F)cc1)NC1CCCCC1 | inactive: 83%
COc1ccc(OCc2ccc(-c3nc(C#N)c(N4CCN(c5cccc(Cl)c5)CC4)o3)o2)cc1 | inactive: 75%
O=C(COc1ccc([N+](=O)[O-])cc1)Nc1cccc2cccnc12 | inactive: 89%
CCN(CC)C(=O)CSc1nc2cc3c(cc2c(=O)n1CCCCCC(=O)NCCc1ccc(OC)c(OC)c1)OCO3 | inactive: 115%
COCCNC(=O)CCc1c(C)nc2c(c(C)nn2-c2ccc(C)cc2)c1C | inactive: 89%
CCOc1ccc(NC(=O)c2c(NCc3sccc3C)sc3c2CCCCC3)cc1 | inactive: 73%
COc1ccc(CNC(=O)c2ccc3c(c2)N(Cc2ccccc2F)C(=O)c2ccccc2S3(=O)=O)cc1 | inactive: 74%
Cc1ccc(C(=O)N2CC3(C)CC2CC(C)(C)C3)cc1 (stereo unspecified) | inactive: 100%
N#Cc1c(C(F)(F)F)cc(-c2cccs2)nc1SCC(=O)Nc1ccc(F)cc1 | inactive: 72%
Cc1cc(F)ccc1NC(=O)CN(C)S(=O)(=O)c1ccc(C(=O)N2CCOCC2)s1 | inactive: 96%
CC1(C)CCCC2=C1CC1C(=O)N(O)C(=O)C1C2 (stereo unspecified) | inactive: 93%
CSc1ncc(Cl)c(C(=O)Nc2ccc(S(=O)(=O)N3CCCC(C)C3)cc2)n1 (stereo unspecified) | inactive: 79%
CCC(Sc1nc2nccnc2c(=O)n1Cc1ccc(F)cc1)C(=O)NC1CCCCC1 (stereo unspecified) | active: 42%
CCOc1cccc(C2c3[nH]c4ccccc4c3CCN2C(=O)CCC2CCCC2)c1 (stereo unspecified) | inactive: 78%
O=C(CSc1ccccn1)c1ccc(Cl)cc1 | inactive: 76%
CCc1cccc(NC(=O)C2CCC(CNS(=O)(=O)c3csc(C(N)=O)c3)CC2)c1 (stereo unspecified) | inactive: 80%
COc1cc(NC(=O)C2CCCN(S(=O)(=O)c3ccc4c(c3)CCCC(=O)N4)C2)cc(OC)c1 (stereo unspecified) | inactive: 94%
COc1cc(Cl)c(C)cc1NC(=O)Cn1ncc2c(=O)oc3ccccc3c21 | inactive: 83%

Structure (SMILES) | survival
CCC(C(=O)OC)n1cnc2c(cnn2-c2ccc(F)cc2)c1=O (stereo unspecified) | inactive: 92%
COc1ccc(-c2nc(SCC(=O)c3ccc(OC)c(Br)c3)n[nH]2)cc1 | inactive: 97%
O=C(NCc1cccnc1)C(=O)NCC(c1cccnc1)N1CCN(c2ccccc2F)CC1 (stereo unspecified) | inactive: 106%
Cc1cc(C)c2c(=O)cc(C(=O)Nc3ccc(S(=O)(=O)N(C)Cc4ccccc4)cc3)oc2c1 | inactive: 61%
O=C(C1CCN(S(=O)(=O)c2cccc3nonc23)CC1)N1CCN(c2ccccc2F)CC1 | inactive: 89%
CCOC(=O)c1sc2ccccc2c1S(=O)(=O)N1CCN(c2cccc(C)c2C)CC1 | inactive: 101%
CCOC(=O)c1sc2ccccc2c1S(=O)(=O)N1CCN(c2cccc(OC)c2)CC1 | inactive: 81%
Cc1nn(-c2ccc(F)cc2)c(-n2cccc2)c1C(=O)NCCCN1CCN(c2cccc(Cl)c2)CC1 | inactive: 94%
CC(C)(C)OC(=O)N1CCC(c2c(C(=O)NCc3ccco3)cnn2-c2ccccc2)CC1 | inactive: 88%
CCOc1ccc(S(=O)(=O)c2cn(Cc3ccccc3)c3ccc(OCC)cc3c2=O)cc1 | inactive: 72%
CCc1ccc(S(=O)(=O)Nc2cccc(-c3ccc(N4CCC(C)CC4)nn3)c2)s1 | inactive: 64%
Cc1cc(=O)n2nc(N3CCC(C(=O)NCc4ccccc4)CC3)sc2n1 | inactive: 95%
Cc1ccc(NC(=O)Cn2cnc3nc4c(cc3c2=O)CCCC4)cc1Cl | inactive: 94%
CCc1ccc(CNC(=O)c2cnc3sc(N4CCCCC4)nn3c2=O)cc1 | inactive: 99%
CCn1c(=O)cc(SCC(=O)NCc2ccccc2OC)c2ccccc21 | inactive: 66%
COc1ccc2cc(C(=O)NCc3ccc4c(c3)CCN4C(=O)c3ccccc3)[nH]c2c1 | active: -1%
O=C(NCCn1cnc2cccnc21)Nc1ccccc1-c1ccccc1 | inactive: 103%
COc1ccc(C(=O)Nc2ccc(OCc3cc(=O)n4ccsc4n3)cc2)cc1OC | inactive: 110%
COC(=O)c1cc(S(=O)(=O)NCC2CCN(Cc3ccccc3F)CC2)c[nH]1 | inactive: 82%

Structure (SMILES) | survival
CN1C(=O)C2(c3ccccc31)N(c1ccc(F)c(Cl)c1)C(=O)CS2(=O)=O (stereo unspecified) | inactive: 74%
Cc1ccc(Cl)cc1NC(=O)CC1SC(N)=NC1=O (stereo unspecified) | inactive: 99%
CCC(=O)N1CCc2cc(S(=O)(=O)CCC(=O)N3CCN(c4ccc(C(C)=O)cc4)CC3)ccc21 | inactive: 97%
CCOc1ccc(-c2cn3c(n2)sc2cc(C(=O)NCCc4ccc(OC)c(OC)c4)ccc23)cc1 | active: 49%
Cc1ccc(C2=NN(CC(=O)NCCc3ccc(Cl)cc3)C(=O)CC2)cc1 | inactive: 117%
Nc1ccc2nc(CN3CCOCC3)[nH]c2c1 | inactive: 88%
O=C(Nc1ccc(F)cc1Cl)C1Cc2ccccc2N1C(=O)c1ccccc1 (stereo unspecified) | inactive: 85%
O=C(CCn1nc(-c2ccc(Cl)cc2)c2ccccc2c1=O)Nc1ccc(OC(F)(F)F)cc1 | inactive: 135%
Cc1ccc(Cl)cc1N1CCN(C(=O)C2CCN(S(=O)(=O)c3ccc4c(c3)oc(=O)n4C)CC2)CC1 | inactive: 80%
CC(=O)c1cccc(NC(=O)c2nc3ccccc3nc2N2CCCCC2)c1 | inactive: 71%
COc1ccc(OC)c(CNC(=O)C2CCN(c3ncnc4c3nc3n4CCCCC3)CC2)c1 | inactive: 91%
Cc1cc(C)nc(Nc2ccc(S(N)(=O)=O)cc2)n1 | inactive: 83%
CCOc1cc(C(=O)NCCc2csc(-c3ccc(C)cc3)n2)cc(OCC)c1OCC | inactive: 87%
Cc1ccc(S(=O)(=O)/N=C(\N)Nc2nc3ccccc3o2)cc1 | inactive: 84%
CN(C(=O)c1cc2c(=O)n3ccccc3nc2n1C)c1ccccc1 | inactive: 52%
COc1ccc(CCNC(=O)CCn2c(=O)c3cccn3c3cccnc32)c(OC)c1OC | inactive: 83%
Cc1cccc(NC(=O)N2CCC(n3c(C)nc4cccnc43)CC2)c1 | inactive: 79%
O=C1C=CC(=O)C(c2ccc(Cl)cc2)=C1 | inactive: 66%
